Measurements taken from PubChem BioAssay (NCI).
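Where inhibition never reached the appropriate level, the endpoint shown equals the highest concentration tested. Otherwise, values were interpolated linearly from a five-concentration, 48-hour dose response in 96-well plates. Definition used: TGI = concentration required for complete inhibition of growth.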 For part of its entries the source gives two or more results. They are shown here; other results are not. An entry can have further records. Values that stand side by side are repeated measurements (runs, samples, wells, individuals or studies). Marks in square brackets tell the records apart. Letters hold for one entry only.

How the values were obtained:
Assay in all cases: NCI-60 cell line screen, 48 h
BT-549 breast = test system: BT-549 breast
MALME-3M melanoma = test system: MALME-3M melanoma
NCI-H226 lung = test system: NCI-H226 lung
NCI-H522 lung = test system: NCI-H522 lung
NCI/ADR-RES ovarian = test system: NCI/ADR-RES ovarian
OVCAR-4 ovarian = test system: OVCAR-4 ovarian
MOLT-4 leukemia = test system: MOLT-4 leukemia

Row | Structure (SMILES) | TGI (BT-549 breast) | TGI (MALME-3M melanoma) | TGI (NCI-H226 lung) | TGI (NCI-H522 lung) | TGI (NCI/ADR-RES ovarian) | TGI (OVCAR-4 ovarian) | TGI (MOLT-4 leukemia)
1 | O=C(O)c1ccccc1N=Nc1c(O)c(S(=O)(=O)O)cc2cc(S(=O)(=O)O)ccc12 | 952 nM [sample A] and > 100 µM [sample B] | 211 nM [sample A] and > 100 µM [sample B] | 166 nM [sample A] and > 100 µM [sample B] | 75.7 nM [sample A] and > 100 µM [sample B] | 3.43 µM [sample A] and > 100 µM [sample B] | 240 nM [sample A] and > 100 µM [sample B] | 
2 | COc1ccc(/C=C(/C)[N+](=O)[O-])cc1OC |  |  |  |  |  |  | > 100 µM [sample A, 1 test] and 7.23 µM [sample B, mean of 2 tests]
